Experimental data taken from PubChem BioAssay AID1460 (National Center for Advancing Translational Sciences (NCATS), 2008).
The whole screen tested about 270,000 compounds, of which about 5,800 (2.1%) were called active. Inconclusive results, whose numbers are uncertain, are shown with a selection of clear calls. The call rests on the fitted dose curve; in most records, active means well fitted inhibition curve with a large enough effect; inconclusive means small, poorly fitted or top-dose-only effect; inactive means flat fitted curve, though single readings scatter. Potencies of inconclusive entries are doubtful fits and often do not repeat.

molecular target: Microtubule-associated protein tau (Homo sapiens) (UniProt P10636); assay: qHTS for Inhibitors of Tau Fibril Formation, Thioflavin T Binding; settings: recombinant tau K18 P301L (four-repeat tau fragment), heparin-induced fibrillization, ThT fluorescence; series mostly up to 57.4 µM; activity, negative = inhibition: at the top concentration; further: nearly all actives have a fitted effect of over 55% in size
Summary of the method: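 In this qHTS, human K18 P301L tau is incubated with compound and heparin for 6 hr at 37 C, and Thioflavin T fluorescence then reports fibril load.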
On the % scale 0 is the no-effect control and ±100 the full control effect; potency means the concentration at half of the fitted maximal effect; tags describe the fitted curve by direction and shape.

UniProt P10636, sequence (P10636 whole entry, looked up, the tested form may be a part): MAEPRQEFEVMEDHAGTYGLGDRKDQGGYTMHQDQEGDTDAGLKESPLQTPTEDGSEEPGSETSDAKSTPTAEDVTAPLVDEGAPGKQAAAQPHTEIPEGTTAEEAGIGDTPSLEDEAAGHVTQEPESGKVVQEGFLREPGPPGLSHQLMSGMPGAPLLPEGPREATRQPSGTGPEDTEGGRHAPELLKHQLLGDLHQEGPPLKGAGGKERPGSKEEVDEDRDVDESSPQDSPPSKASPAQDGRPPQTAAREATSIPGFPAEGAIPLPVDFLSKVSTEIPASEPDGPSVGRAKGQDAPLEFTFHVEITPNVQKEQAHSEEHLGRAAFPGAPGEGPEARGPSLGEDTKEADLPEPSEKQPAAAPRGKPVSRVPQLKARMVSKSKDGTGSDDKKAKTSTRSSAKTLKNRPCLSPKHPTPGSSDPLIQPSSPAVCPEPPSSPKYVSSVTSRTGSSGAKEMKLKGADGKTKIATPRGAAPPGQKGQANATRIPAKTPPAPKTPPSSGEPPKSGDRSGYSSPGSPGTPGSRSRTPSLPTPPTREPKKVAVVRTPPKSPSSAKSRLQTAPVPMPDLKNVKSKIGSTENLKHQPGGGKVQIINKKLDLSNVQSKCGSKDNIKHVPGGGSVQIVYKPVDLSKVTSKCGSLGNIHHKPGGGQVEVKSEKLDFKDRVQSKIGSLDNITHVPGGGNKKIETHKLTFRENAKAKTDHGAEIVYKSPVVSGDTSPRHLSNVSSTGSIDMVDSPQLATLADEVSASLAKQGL

SMILES	activity, negative = inhibition	Potency
Cc1ccc(N2CCN(C(=O)CCS(=O)(=O)c3cc4c(cc3Cl)NC(=O)CO4)CC2)c(C)c1	inactive: -10.8%	
CC1CCN(c2nc3c(S(=O)(=O)c4cccc(Cl)c4)nnn3c3ccsc23)CC1	inactive: 5.15%	
O=C(NCc1ccco1)c1cc(-c2cccnc2)nc2ccc(Cl)cc12		inconclusive: 22.4 µM [inhibitor, single point]
Cc1ccc(C)n1-c1ccc(-n2cnnn2)cc1		inconclusive: 14.1 µM [inhibitor, partial curve, poor fit]
COc1ccc(C(C)C)cc1S(=O)(=O)N1CCN(C)CC1	inactive: -5.87%	
COc1ccc(/C=N/Nc2nc(N3CCCC3)nc(N3CCCC3)n2)cc1O	inactive: -9.02%	
CC(=O)c1ccc(N2CCN(S(=O)(=O)c3ccc(-c4cnc(C5CC5)o4)cc3)CC2)cc1		inconclusive: 5.01 µM [inhibitor, partial curve]
COc1cc(C(=O)Nc2ccc(N3CCOCC3)cc2)ccc1OCc1c(C)noc1C		inconclusive: 12.6 µM [inhibitor, partial curve]
Cc1nc2c(cc(Oc3ccc(S(=O)(=O)N4CCOCC4)cn3)c3ccsc32)s1	inactive: 6.75%	
CCOC(=O)c1cc(-c2ccc(OC)cc2)n(CCC(=O)NCCc2ccc(OCC)c(OCC)c2)c1C	inactive: -7.73%	
CN(C)c1ccc(N=Nc2ccccc2C(=O)OCC(=O)Nc2ccccc2C(F)(F)F)cc1		active: 5.01 µM
COC(=O)c1ccc(/C=C/C(=O)c2ccc(OC)cc2)cc1		inconclusive: 10 µM [inhibitor, partial curve]
CC(C)CNS(=O)(=O)c1ccc2c(c1)OCCO2	inactive: -12.7%	
COCCn1nnnc1CN(CCCN1CCOCC1)Cc1cc2c(C)ccc(C)c2[nH]c1=O		inconclusive: 39.8 µM [inhibitor, single point]
COc1cc(/C=c2\sc3nc(-c4ccncc4)nn3c2=O)ccc1OC(C)=O		inconclusive: 3.55 µM [inhibitor, full curve]
COc1ccc(OCCCn2c(C)nc3cc(C)c(C)cc32)cc1		inconclusive: 15.8 µM [inhibitor, partial curve]
CCC1=C(c2ccc(C)cc2)S(=O)(=O)N=C1N1CCC(C(=O)NCCc2cccc(OC)c2)CC1		inconclusive: 28.2 µM [inhibitor, partial curve]
CCCC(=O)Nc1ccc(S(=O)(=O)N2CCCC2)cc1	inactive: -2.11%	
N#CC1=C(SCC(=O)Nc2nccs2)NC(=O)CC1c1ccccc1 (configuration not stated)		inconclusive: 22.4 µM [inhibitor, partial curve, poor fit]
O=C(c1ccc2nc(-c3ccco3)c(-c3ccco3)nc2c1)N1CCN(c2ncccn2)CC1		inconclusive: 5.01 µM [inhibitor, full curve]
CCOC(=O)c1c(NC(=O)C2C3C=CC(CC3)C2C(=O)O)sc(C)c1CC (configuration not stated)	inactive: -3.3%	
CCn1c(O)c(N=NC(=O)c2cccs2)c2ccccc21		inconclusive: 15.8 µM [inhibitor, partial curve]
COC(=O)c1c(-c2cccnc2)csc1NC(=O)c1cc(C)on1		inconclusive: 22.4 µM [inhibitor, partial curve]

SMILES	activity, negative = inhibition	Potency
CC1(C)Cc2c(sc3nc(-c4cc5ccccc5o4)n(N)c(=O)c23)CO1		inconclusive: 12.6 µM [inhibitor, partial curve]
COc1ccc(/C(O)=C/c2nc3ccc(C(=O)NCCc4cccc(C)c4)cc3[nH]c2=O)cc1OC		inconclusive: 14.1 µM [inhibitor, partial curve]
CCC(C)c1ccccc1NC(=O)COC(=O)c1ccc2[nH]c3c(c2c1)CCCC3 (configuration not stated)		inconclusive: 44.7 µM [inhibitor, single point]
CC(C)CC(=O)N1CCN(S(=O)(=O)c2ccc(F)cc2)CC1	inactive: -3.1%	
CCOC(=O)c1ccc(NC(=O)C(CC)Sc2nncn3c2cc2oc(C)cc23)cc1 (configuration not stated)		inconclusive: 6.31 µM [inhibitor, partial curve]
O=C(OCC#CCSc1nnc(-c2ccc([N+](=O)[O-])cc2)o1)c1cccs1		inconclusive: 3.98 µM [inhibitor, full curve]
CCCCCCn1c(N2CCN(c3ccccc3)CC2)nc2c1c(=O)n(C)c(=O)n2C		inconclusive: 35.5 µM [inhibitor, single point]
S=C1NC2=C(CCC/C2=C\c2ccc(Cl)cc2)C(c2ccc(Cl)cc2)N1 (configuration not stated)		inconclusive: 20 µM [inhibitor, single point]
COc1ccc(NC(=O)c2cc(S(=O)(=O)N3CCCC3)oc2C)cc1	inactive: -4.93%	
O=C(Cc1cccs1)N1CCN(c2nc(-c3ccc(Cl)cc3)cs2)CC1		inconclusive: 25.1 µM [inhibitor, partial curve]
C=CCNC(=O)c1c(N)n(-c2ccc3c(c2)OCO3)c2nc3ccccc3nc12		inconclusive: 31.6 µM [inhibitor, partial curve]
Cn1cc(-c2cc3n(n2)CCC(=O)N3CCCC(=O)NCc2ccccc2)c2ccccc21	inactive: -12.5%	
COc1ccc(S(=O)(=O)CCC(=O)N2CCN(c3ccccc3F)CC2)cc1		inconclusive: 31.6 µM [inhibitor, partial curve]
CC1CC(=O)c2c(cc3c(-c4c(O)cc(O)c5c(O)c6c(cc45)OC(C)CC6=O)c(O)cc(O)c3c2O)O1 (configuration not stated)		inconclusive: 2.24 µM [inhibitor, single point]
Cc1ccc2c(C(=O)CCl)c(C)[nH]c2c1		inconclusive: 15.8 µM [inhibitor, partial curve]
Cc1ccc(S(=O)(=O)Cc2ccc(C(=O)OCc3ccccc3)cc2)cc1		inconclusive: 44.7 µM [inhibitor, single point]
CCOc1ccccc1C(=O)Nc1cc2c(cc1C)n(C)c(=O)c(=O)n2C		inconclusive: 7.08 µM [inhibitor, partial curve]
CCn1nc(C)c(Br)c1-c1nc(-c2ccc(C)cc2)no1		inconclusive: 15.8 µM [inhibitor, partial curve, poor fit]
COc1ccc(C(=O)Nc2ncc3c(n2)CC(c2ccco2)CC3=O)cc1 (configuration not stated)		inconclusive: 28.2 µM [inhibitor, single point]
C=CCn1c(C)c(C(C)=O)c(N2CCN(c3ccccc3)CC2)nc1=S		inconclusive: 31.6 µM [inhibitor, single point]
CCc1ccccc1NC(=O)c1noc(C(C)C)c1[N+](=O)[O-]		inconclusive: 28.2 µM [inhibitor, single point]
Cc1cc2ccccc2c(=O)n1CC(=O)NCCC1=CCCCC1		inconclusive: 17.8 µM [inhibitor, single point]
CC1=NN(c2ccccc2)C(=O)/C1=C/c1cn(C)c2ccccc12		active: 2.82 µM

SMILES	activity, negative = inhibition	Potency
CCOc1ccc(Nc2nc(-c3cccc(Cl)c3)c3c(n2)-c2ccccc2OC3)cc1	inactive: 14.9%	
CCn1c(C)c(C)c2cc(C(=O)NCC(C)c3ccccc3)ccc21 (configuration not stated)		inconclusive: 5.62 µM [inhibitor, partial curve]
CCCCCCSC1=C(C#N)C(c2ccccc2)CC(=O)N1 (configuration not stated)	inactive: -10.1%	
COC(=O)C1=C(C)N(CC2CCCO2)C(=O)/C1=C\c1ccc(O)cc1 (configuration not stated)		inconclusive: 22.4 µM [inhibitor, partial curve]
CCOc1ccc(C(=O)Nc2nnc(C(C)C)s2)cc1OCC	inactive: -2.05%	
CC(=O)c1c(C)nn(CC(O)Cn2c3c(c4cc(C)ccc42)CCCC3=O)c1C (configuration not stated)		inconclusive: 22.4 µM [inhibitor, partial curve]
COc1ccc(C(=O)NCCCN2CCCC2=O)cc1	inactive: 2.36%	
CCc1ccccc1Nc1nn2c(=O)c3ccc(C(=O)NCCC4=CCCCC4)cc3nc2s1		inconclusive: 3.98 µM [inhibitor, full curve]
CCOC(=O)C1CCCN(C(=O)c2ccc3c(c2)sc2nc(-c4cccc(OC)c4)cn23)C1 (configuration not stated)	inactive: -13.6%	
COc1ccc(CCCc2nnc(SCC(=O)Nc3cccc(F)c3C)o2)cc1	inactive: -8.21%	
COc1cc(/C=C2/SC(=NCc3ccccc3)N(Cc3ccccc3)C2=O)ccc1O		inconclusive: 39.8 µM [inhibitor, single point]
Cc1ccccc1-c1noc(CSc2nc3ccccc3[nH]2)n1		inconclusive: 15.8 µM [inhibitor, single point]
CCN1C(C(=O)c2ccccc2)=C(OC(=O)COc2ccc(C)cc2)c2ccccc2S1(=O)=O		inconclusive: 10 µM [inhibitor, partial curve, poor fit]
O=C1C=CC(=O)c2c(O)c(Cl)c(Cl)c(O)c21		inconclusive: 0.891 µM [inhibitor, full curve, poor fit]
COC(=O)c1ccc(N2C(=O)Cc3cc(OC)c(OC)cc3C2c2ccc(F)cc2)cc1 (configuration not stated)	inactive: -11.5%	
O=C(Nc1ccc(F)cc1)Nc1csc2c1CCCC2		inconclusive: 1.78 µM [inhibitor, full curve]
Cc1ccc(CNC(=O)CSc2nc3c(sc4ccccc43)c(=O)n2CCCC(=O)NCCO)cc1		inconclusive: 28.2 µM [activator, partial curve]
CCC(=O)N1CCc2cc(S(=O)(=O)NCCC(=O)N3CC=C(c4ccccc4)CC3)ccc21		inconclusive: 15.8 µM [inhibitor, partial curve, poor fit]
CCOC(=O)C1=NN(c2ccccc2)C2(S1)SC(C(C)=O)=C(C)N2c1ccccc1 (configuration not stated)		inconclusive: 31.6 µM [inhibitor, partial curve, poor fit]
COc1cc(/C=C2\C(C)=C(C#N)c3nc(N)c(C#N)c(C)c32)ccc1OCC(=O)O		active: 14.1 µM
O=C(Nc1nc2c(F)cc(F)cc2s1)c1ccc(S(=O)(=O)N2CCc3ccccc32)cc1	inactive: -2.39%	
